# Reference: PubChem BioAssay AID463173 (ICCB-Longwood Screening Facility, Harvard Medical School, 2010)
# Out of some 52,000 compounds screened, about 1,700 (3.3%) were called active. Cut-off read from the data, not from the text of the source: active = survival mostly below about 52% (no sharp cut-off); inactive = mostly above about 56%. The list shows a part of the results.
# Test system: Wild type
# Experiment: growth inhibition of S. aureus wild type versus tarO mutant, primary screen, teichoic acid synthesis inhibitors, RN4220, OD600 (AID 463173)
# Conditions: S. aureus RN4220 wild type/DeltatarO growth, OD600, 18 h, hits give low values, screened at 18.75 µg/mL (by protocol)
row,Structure (SMILES),survival
1,CCCCc1nnc(SCc2cc(=O)c3cc(C(=O)OCC)ccc3[nH]2)n1C,inactive: 68%
2,O=C(Nc1cccc(C(=O)N2CCN(c3ccc(Cl)cc3)CC2)c1)c1nsc2ccccc12,inactive: 129%
3,CC1=C(C(N)=O)C(c2cccc(Br)c2)n2nc(SCc3ccccc3)nc2N1 (centres undefined),inactive: 74%
4,CS(=O)(=O)Nc1ccc2c(c1)OCO2,inactive: 94%
5,COc1cc(-c2nnc(SCC(=O)Nc3ccc(F)c(Cl)c3)o2)cc(OC)c1OC,inactive: 111%
6,Cc1cc(C)n2nc(SCC(=O)Nc3ccccc3)nc2n1,inactive: 76%
7,C=CCSc1nnnn1-c1ccc(OC)cc1,inactive: 111%
8,Cc1cc(NC(=O)C(C)C)cc(-c2nc3ncccc3o2)c1O,inactive: 68%
9,Cc1ccc2nc(-c3ccc(O)cc3)c(Nc3ccc4c(c3)OCO4)n2c1,inactive: 71%
10,C1CN(c2nc(N3CCOCC3)nc(N3CCOCC3)n2)CCN1,inactive: 108%
11,CC(C)N(Cc1ccccc1)C(=O)CCS(=O)(=O)c1cc2c(cc1Cl)NC(=O)CO2,inactive: 112%
12,Cc1oc(-c2ccc(Cl)cc2)nc1CS(=O)CC(=O)NCc1ccc(Cl)cc1 (centres undefined),inactive: 84%
13,Cc1cc2nc(-c3cc(NC(=O)c4cc5ccccc5o4)ccc3Cl)oc2cc1C,inactive: 72%
14,COc1cccc(C(=O)Nc2ccccc2OCc2cc(=O)n3cc(C)ccc3n2)c1,inactive: 69%
15,CCc1ccc(NC(=O)CSc2nc3n[nH]c(C)c3c(=N)n2-c2ccccc2C)cc1,inactive: 76%
16,CCCNC(=O)C1CCN(S(=O)(=O)c2ccc3c(c2)CCCN3C(C)=O)CC1,inactive: 128%
17,CC1CC(C)CN(c2nc3c(c(=O)[nH]c(=O)n3C)n2Cc2ccccc2F)C1 (centres undefined),inactive: 108%
18,Cc1ccn(C(=O)c2ccc(NC(=O)C3CCCCC3)cc2)n1,inactive: 100%
19,COc1ccc(N(CC(=O)NCCc2cccc(C)c2)S(=O)(=O)c2c(C)nn(C)c2C)cc1,inactive: 71%
20,COc1ccccc1N1CCN(C(CNC(=O)C(=O)NCCCN(C)C)c2cccnc2)CC1 (centres undefined),inactive: 85%

row,Structure (SMILES),survival
1,CCOC(=O)C1=C(CS(=O)(=O)c2c(C)cc(C)cc2C)NC(=O)NC1c1cccc(OC)c1 (centres undefined),inactive: 73%
2,Cc1ccccc1OCc1nnc(SCc2cc(=O)c3ccccc3[nH]2)n1C,inactive: 113%
3,N#Cc1c(NC(=O)c2cc3nc(-c4ccc(Br)cc4)cc(C(F)(F)F)n3n2)sc2c1CCCC2,active: 0%
4,O=C1CC(c2ccccc2C(F)(F)F)c2c(c3ccccc3[nH]c2=O)O1 (centres undefined),inactive: 69%
5,CCOc1ccc(-c2c(C)nn3c(C)c(C(=O)Nc4ccccc4C(=O)OC)cnc23)cc1OCC,active: -6%
6,CC12CCCCN1CCCc1c2[nH]c2ccccc12 (centres undefined),inactive: 110%
7,COC(=O)c1cccc(Nc2c(-c3ccc(O)c(OC)c3)nc3nc[nH]n23)c1,inactive: 79%
8,CCOc1ccc2[nH]c(=O)c(CN(Cc3cccnc3)S(=O)(=O)c3ccccc3)cc2c1,inactive: 106%
9,COCc1cc(C)nc2sc3c(c12)NC(c1ccc(O)cc1)N(c1ccc(OC)cc1)C3=O (centres undefined),inactive: 83%
10,CCOc1ccc(NC(=O)C2Cc3ccccc3N2C(=O)c2ccccc2)cc1 (centres undefined),inactive: 80%
11,CCOC(=O)c1cnc(SC2CCc3ccccc3C2=O)nc1N (centres undefined),inactive: 115%
12,COc1ccc2c(c1)CCc1c(C(=O)Nc3cc(C)ccc3O)noc1-2,inactive: 96%
13,CC(C)NC(=O)CSc1nc2ccccc2n1CC(=O)N1CCOCC1,inactive: 108%
14,CCCCOc1ccc(CNC(=O)C2CCN(c3nnc(-n4cccc4CNc4ccc(C)cc4)s3)CC2)cc1,inactive: 93%
15,COCCn1c(C)cc(O)c(C(c2ccccc2)N2CCN(C)CC2)c1=O (centres undefined),inactive: 87%
16,Cc1cccc(NC(=O)CSc2nc3ccc(NC(=O)c4ccco4)cc3s2)c1,inactive: 67%
17,COc1cc(Cn2c(=O)sc3ccccc32)ccc1OC(C)C,inactive: 41%
18,Cc1ccc(-c2nc3cc(C(C)C)ccc3o2)cc1NC(=O)c1cccs1,inactive: 72%
19,COc1cccc(NC(=O)CCNS(=O)(=O)c2ccc(Br)s2)c1,inactive: 71%
20,COc1ccc(CNC(=O)Cc2csc3ccccc23)cc1OC,inactive: 78%

row,Structure (SMILES),survival
1,CCc1nn(CC(=O)N2CCCCC2)c(=O)c2cc3sccc3n12,inactive: 65%
2,Nc1ccc(S(=O)(=O)NCc2ccncc2)cc1,inactive: 99%
3,CC1=CC(C)C2C(=O)N(c3ccccc3)C(=O)C2C1 (centres undefined),inactive: 111%
4,CC(NC(=O)c1cc(Sc2ccc(F)cc2F)nc2ccccc12)c1ccccc1 (centres undefined),inactive: 73%
5,COc1cc(Br)c(/C=C(\C#N)c2nc3ccccc3[nH]2)cc1OC,inactive: 136%
6,CCc1ccccc1NC(=O)C1CCC(CNS(=O)(=O)c2ccc3c(c2)CC(C)N3C(C)=O)CC1 (centres undefined),inactive: 100%
7,Cc1cc(C(=O)NCC(=O)O)c(C)o1,inactive: 112%
8,Cc1ccc(N2C(=O)CSC23C(=O)N(CC(=O)NC2CCCCC2)c2ccccc23)cc1 (centres undefined),inactive: 85%
9,CC(C)OCCCNC(=O)c1ccc(-n2c(-c3ccccc3)cc3c2CCCC3)cc1,inactive: 97%
10,CC(C)CN1CCc2nc(N3CCN(c4ncccn4)CC3)ncc2C1,inactive: 75%
11,COc1cccc(C(=O)NCC(c2ccc(N(C)C)cc2)N2CCCC2)c1OC (centres undefined),inactive: 87%
12,COc1ccc2nc(NC(=O)c3nc(SCc4ccc(F)cc4)ncc3Cl)sc2c1,inactive: 92%
13,Cc1cn2c(=O)c(S(=O)(=O)NCCc3ccccc3)c(C)nc2s1,inactive: 86%
14,CCOc1ccc(-c2nnc(SCC(=O)NCCC(C)C)nc2-c2ccc(OCC)c(OC)c2)cc1OC,inactive: 110%
15,COc1ccccc1CNCC(=O)Nc1cc(C)on1,inactive: 104%
16,COc1ccc2nc(SCC(=O)c3c(C)[nH]c4ccccc34)nc(C)c2c1,inactive: 82%
17,CCOc1ccc(OCC)c(NC(=O)C2CCN(S(=O)(=O)c3ccc(Br)s3)CC2)c1,inactive: 77%
18,O=C(COC(=O)CCCC1=NS(=O)(=O)c2ccccc2N1)Nc1ccc(Br)cc1,inactive: 81%
19,O=C(Nc1ccc(F)cc1)[C@H](CSCc1ccccc1)N1Cc2ccccc2C1=O,inactive: 75%
